{"source": "PubChem BioAssay (NCATS)", "note": "“And” between values parts separate entries of the source, which are not always exact repeats. Equal values may be shown once. This list was built around the results that the source calls inconclusive (neither active nor inactive); the mix of calls is not that of the screen. Potencies beside an inconclusive call are fits to weak or partial responses and may not hold up. The source made the active and inactive calls. Calls follow the shape of the dose curve; as a rule, active = well fitted cell-killing curve with a large enough effect; inconclusive = small, poorly fitted or top-dose-only effect; inactive = no such curve, though single readings can be large or run the other way. Potency is read from the fitted curve at half-maximal effect; tags tell the direction and shape of the fitted curve.", "data": [{"test": "qHTS of pediatric cancer cell lines to identify multiple opportunities for drug repurposing: Primary screen for SJ-GBM2 cells (AID 1347091)", "conditions": "SJ-GBM2 viability, CellTiter-Glo luminescence, 48 h; series mostly up to 46 µM", "how_it_was_run": "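Viability measured as metabolically active cells via CellTiter-Glo luminescence following 48 hours of compound exposure, 11-point dilutions in confirmatory testing. 500-1,000 cells/well plated 5 hours before dosing; controls were DMSO and 2.3 µM bortezomib.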", "values": [{"smiles": "COc1ccc(CCN(C)CCCOc2ccc(S(=O)(=O)c3[nH]c4ccccc4c3C(C)C)cc2)cc1OC", "Potency": "inconclusive: 23.5 µM [cytotoxic, single point]"}, {"smiles": "CC(C)(N)C(=O)N[C@H](COCc1ccccc1)C(=O)N1CCC2(CC1)CN(S(C)(=O)=O)c1ccccc12", "Potency": "inconclusive: 14.8 µM [cytotoxic, partial curve]"}, {"smiles": "Cn1cc(-c2ccc3nnc(Sc4ccc5ncccc5c4)n3n2)cn1", "Potency": "active: 0.0118 µM"}, {"smiles": "CCN(CC)CCNC(=O)c1ccc2nc(-c3ccccc3)c(-c3ccc(CN4CCC(n5c(=O)[nH]c6ccccc65)CC4)cc3)nc2c1", "Potency": "active: 16.6 µM"}, {"smiles": "S=P(N1CC1)(N1CC1)N1CC1", "Potency": "inconclusive: 18.7 µM [cytotoxic, partial curve]"}, {"smiles": "CCNC(=O)Nc1ccc(Oc2ncnc(N)c2C=NOC)cc1Cl", "Potency": "active: 5.26 µM"}, {"smiles": "COc1ccccc1-c1cccc(-c2c(O)c3cc(C#N)c(Cl)cc3[nH]c2=O)c1", "Potency": "inconclusive: 7.62 µM [cytotoxic, full curve]"}, {"smiles": "COc1ccc(-c2ccc3cc(C(=O)O)ccc3c2)cc1C12CC3CC(CC(C3)C1)C2", "Potency": "inconclusive: 29.9 µM [cytotoxic, single point] and active: 1.87 µM"}, {"smiles": "O=C(Nc1cccc2c(=O)cc(-c3nn[nH]n3)oc12)c1ccc(OCCCCc2ccccc2)cc1", "Potency": "inconclusive: 26.4 µM [cytotoxic, single point]"}, {"smiles": "CNC(=O)c1c(-c2ccc(F)cc2)oc2cc(N(CCO)S(C)(=O)=O)c(C3CC3)cc12", "Potency": "inconclusive: 23.5 µM [cytotoxic, single point]"}]}]}
